# The source gives no read counts; variants with many changes may rest on few reads.
# B1: LINE1-full (parent)
# chain: UACGUAGGUGGUUUUCCCCUGAUAGUGCUAAGGGGGCCUGGAAGUUUGGACUGGGCAGAGCUCAACACAGCGUGGCAAAGUGGCUGUGGCUAGACUGCCUCUCUGGAUUCCUCGUCACUCAGCAGGGCAUCUCUGAGAGAAAUGCC
# Variants of: B1
# Experiment: self-cleavage, relative activity (ratio to wild type); higher = more cleavage; in vitro, sequencing; the parent is a self-cleaving ribozyme
row,Variant,self-cleavage
1,U1A A2G U14C C37G U104C A138G,1.31
2,U1A A2G U134C A141G,2.7
3,U1A A22G U46G U47A,2.12
4,U1A A42G A64U A78G,0.53
5,U1A A42G A136U,0.51
6,U1A A50G C76A,1.23
7,U1A A64G U102C,0
8,U1A A65G U108C,0
9,U1A A67G C131A,0.64
10,U1A A67G U119C,1.53
11,U1A A77U A78U A140C,0.58
12,U1A A78U A79G A141G,1.7
13,U1A A79G U134G,1.31
14,U1A A117U G127U A140G,1.2
15,U1A C16U A77U,0.42
16,U1A C16U U109C,1.58
17,U1A C17U A140G,0.41
18,U1A C18A A65G U100C,0
19,U1A C19U U85C A117G U130C,0
20,U1A C37U C99U,0.91
21,U1A C37U U108C,1.74
22,U1A C90U G135A,0.17
23,U1A C116A U130G,0.79
24,U1A G21A U85C U109A G125U A142G,0

row,Variant,self-cleavage
1,U1A G33U U73G A124G,1.04
2,U1A U9A U12C A57U,0.11
3,U1A U9C U26C U102C,0
4,U1A U9G U47C U62A U134A,0.24
5,U1A U12A U134C A140G,0.74
6,U1A U13C A92G,0.25
7,U1A U13C G32A A140G,1.33
8,U1A U13C U20C A43G U109C,0.75
9,U1A U13C U85A U119A,0.23
10,U1A U14C U47C,1.07
11,U1A U14C U87C U134C,0.42
12,U1A U15C U62A,0.12
13,U1A U15C U109A U112A,1.01
14,U1A U15G U26A U52A G54U,0.65
15,U1A U20A A142G G144A,1.45
16,U1A U20C G35U U47A U102C U130C,1.48
17,U1A U20C U85C C131U U132C,0.37
18,U1A U29C A64U U96C A107G A140G,0
19,U1A U39G A140G U143A,0.61
20,U1A U46A A64U A79G,0.37
21,U1A U73C A141G,1.44
22,U1A U87C U104A A129G,0.46
23,U1A U104A U119C A138G,1.3
24,U1A U108C A138U,2.57

row,Variant,self-cleavage
1,U1A U108C U115C,0
2,U1C A2G U14C A117G A121G A140G,1.15
3,U1C A2G U62A,0.18
4,U1C A6G A43G U62C,0
5,U1C A6G A67G,0.32
6,U1C A6G G114A,0.87
7,U1C A6U A22U A24U U52C U96C,0
8,U1C A6U A92G,0.1
9,U1C A6U G70A G88A U132C,0.06
10,U1C A6U U62C C128U,0.2
11,U1C A6U U85C,0.21
12,U1C A6U U87A,0
13,U1C A22G A79G A117U A129G A136G,0.53
14,U1C A22G U29C,1.62
15,U1C A24G A138G,1.13
16,U1C A24U A69U,0.03
17,U1C A24U U109C,0.38
18,U1C A30U A65U A79G A117G,0
19,U1C A31G U47A A124G,1.31
20,U1C A31U U46C U81C A129U A138G,0
21,U1C A42G A69U A107G A124U,0.22
22,U1C A42G U104A A117G,0.38
23,U1C A42U A121U,0.32
24,U1C A43G U62C U112C C131U,0.21

row,Variant,self-cleavage
1,U1C A43G U109C,1.89
2,U1C A50G U52A,0.59
3,U1C A57G U62A U104C C113A,0.11
4,U1C A57G U87C,0
5,U1C A57U A129U,0.11
6,U1C A59U U62A C120A,0.02
7,U1C A64U U81A,0.29
8,U1C A64U U112C U143C,0.3
9,U1C A65U A77G U87C U130C A141G,0
10,U1C A65U A94G A142G,0
11,U1C A69G U87G U104C A129G,0
12,U1C A69U U100C,0.04
13,U1C A77G U87A U104C A138G,0.1
14,U1C A77G U104C A138G,2.3
15,U1C A77U C128G,0.55
16,U1C A78G U100C U102C A138G,0
17,U1C A78G U119A,0.42
18,U1C A78U A136G,1.34
19,U1C A79G C123U,0.62
20,U1C A79U G125U,0.91
21,U1C A117U U132C,0.98
22,U1C A124G A138G,0.91
23,U1C A138G A142G,1.13
24,U1C C3U A94G A121U,0.34

row,Variant,self-cleavage
1,U1C C3U U13C C61U A64G,0.13
2,U1C C18U U134G,0.99
3,U1C C19U U132C,0.81
4,U1C C56A U108C,0.05
5,U1C C84A A94U,0.12
6,U1C G4C U12G A30G U100A,0.86
7,U1C G7A U47C G106C A121U A140G,2.37
8,U1C G7U G58A A121U A141G,0.05
9,U1C G8A U46A,0.98
10,U1C G8U U45C,1.06
11,U1C G10A U39C U100A U112C A138U,0.17
12,U1C G10U A22G A129G,0.92
13,U1C G32A C71U U96A U102C,0.01
14,U1C G32U U52A A129G,1.31
15,U1C G33A A124U C128U,0.13
16,U1C G34A A57G A65U U132A A142U,0.2
17,U1C G40A A129U A140G,0.61
18,U1C G44A A77G U91A,0.41
19,U1C G44A G75A A121U,0.57
20,U1C G55U U96A U115C,0.03
21,U1C G89A U100C,0
22,U1C G127U U132C U134C,1.02
23,U1C U5A G40A U62A A117G A129U A140G U143A G144A,0
24,U1C U5C A121G,2.02

row,Variant,self-cleavage
1,U1C U5C A138U,1.25
2,U1C U5C C116A,0.8
3,U1C U5C G97A,0.21
4,U1C U5C U39A A77G,1.79
5,U1C U9A A42G U45G,0.63
6,U1C U9A A138G,1.5
7,U1C U9A C18U A136G,0.55
8,U1C U9C G35A U73A G89A,0.03
9,U1C U9C G41U U62C A65G A94G,0.26
10,U1C U9C U14C U26A A69G A142G,0.48
11,U1C U9C U26C U87C A138G,0
12,U1C U9C U39A G55C C61A U62A A92U U132A A138U,0.11
13,U1C U12A A24G A42G U52A A67U A141G,0
14,U1C U12A A121G,0.84
15,U1C U12C A136U,0.52
16,U1C U12C G127A,1.11
17,U1C U12G A30G U112A,0.5
18,U1C U12G A65U U130C U143C,0.21
19,U1C U12G A129U,0.99
20,U1C U12G U47C G58A C71U,0.18
21,U1C U12G U96A U108C A129G,0
22,U1C U13A U26A U100C U130C U132A,0
23,U1C U13A U52C U81A U102C,0.71
24,U1C U13C A92G U134A,0

row,Variant,self-cleavage
1,U1C U13C U73C,0
2,U1C U13C U102C A121G U130A,0
3,U1C U14C A22G U26A C37A A117G,1.53
4,U1C U14C A42G C98U U112C,1.29
5,U1C U14C A42G U45C U102A A121U A136U,1.31
6,U1C U14C A64G A69C,0.38
7,U1C U14C C84U,0.12
8,U1C U14G A42U U52A A77G A124G,0.31
9,U1C U14G U45C A59G U85A U108A A121G,0
10,U1C U15A A31U,0.44
11,U1C U15A A117G,0.96
12,U1C U15C A42G,2.83
13,U1C U15C G72A U81A A136G,1.61
14,U1C U20A A43C A140U,1.26
15,U1C U20A A67U U108C A141G,0.07
16,U1C U20C A43G,0.73
17,U1C U23C U115C U119C,0.84
18,U1C U26A A59U A77G,0.95
19,U1C U26C A43G U143C,1.61
20,U1C U29A A31G,0
21,U1C U39A A142G,1.47
22,U1C U39A G58U,0.18
23,U1C U39C A50G,1.64

# — the RNAGym collection of RNA variant scans (doi:10.7554/elife.90254)
